Publication PMC12136788
Some of the results follow.

T1: UNK ZnF1-3 (human, UniProt Q9C0B0 31-174)
T1 sequence: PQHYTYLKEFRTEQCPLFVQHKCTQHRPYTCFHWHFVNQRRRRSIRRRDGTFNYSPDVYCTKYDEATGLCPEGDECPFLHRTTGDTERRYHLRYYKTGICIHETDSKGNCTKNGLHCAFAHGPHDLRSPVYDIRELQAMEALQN

B1: chr4:140556289:140556290:+_ENSMUSG00000036622_ENSMUST00000037055|mus_mus|mus_mus_mus_hu_False|38_78 (ssRNA)
RNA: GGGAGUUCUACAGUCCGACGAUCGAUGGAGCUCACCAGGCCCCCUUUUGCCGUGCAGAACCCUGUCCGGGUCACCACUGCCAGGACGUGCGGUCCCACGUAGGCUCGGGCCUGCAAGAUGAGGGUCCCGCAGAAGAGUGUGUGCAACAGAGGAUUGAGCAUCA
B2: chr11:46405157:46405158:+_ENSG00000110492_ENST00000395566|hu_hu|hu_hu_hu_mus_False|8_68 (ssRNA)
RNA: GGGAGUUCUACAGUCCGACGAUCCCCUCCCCACUUUGGGCACUUGGUGUGGGCGUGAGAGGACAGGAUGAUUGAUUAGAGCUGACAGGAAGACAAAAGGCACUGGUGGGUUAUAUCUUGGGCCUGUGAGAGGGAGGGGCUCCGCAACAGAGGAUUGAGCAUCA
B3: chr5:44142225:44142226:-_ENSMUSG00000039753_ENSMUST00000047857|mus_mus|FALSE|FALSE (ssRNA)
RNA: GGGAGUUCUACAGUCCGACGAUCCCCUGCACCAGUUACAGUCAGACAGCCAGAGAGAUUCAGGUGCUCCAGGUAAGGCAGCCCUCCUCCCAGAGUCAGAGCCCUGAGACCAUGGUCUGUGAUCUGGUAACAUCCAGACAGACUCAACAGAGGAUUGAGCAUCA
B4: chrX:16870723:16870724:-_ENSG00000102054_ENST00000404022|hu_mus|FALSE|FALSE (ssRNA)
RNA: GGGAGUUCUACAGUCCGACGAUCCUUAUGCGAUUCAAAGGUGUGGAGUUUUAGUUUCAGAUUACGCAGGUCCCAUAAAGCUACAGUCUUAUCUGCAGAGCCAGUUGCCAGAAUGAACUCGCUGUAGGGAUUGAAUGAGAGGCACAACAGAGGAUUGAGCAUCA
B5: chr10:33214929:33214930:-_ENSG00000150093_ENST00000302278|hu_hu|hu_hu_hu_mus_True|88_98 (ssRNA)
RNA: GGGAGUUCUACAGUCCGACGAUCAACAAGUUCAUUGAAUACUUCUCCUUUAUUAGUAAGACUAAGCACAUUUUUGUAGCUAAAUGGGCUGGUGCAGUUUUGUUCACUUGUACAAGGAUUUCUUAGCUUUGCUGGGGUUGUGCUCAACAGAGGAUUGAGCAUCA
B6: 70344148_70344643_1976_CDS_ENSG00000184634_ENST00000374080|human|control|control (ssRNA)
RNA: GGGAGUUCUACAGUCCGACGAUCAAUGUCCAUAGAUUCUGAGAGCCCUGGAUCUUCCAGCUUGCUGCUGCUGCUGCCUUCAGCCUCCUUGUGCUCUGGGUCAUCGGCAGGAUCAUCAAAGGGAGAGGGAGGCCGGGGACCAGGCAACAGAGGAUUGAGCAUCA
B7: 22956485_22958199_1973_CDS_ENSG00000068793_ENST00000560848|human|control|control (ssRNA)
RNA: GGGAGUUCUACAGUCCGACGAUCCUGCUGCAGCGUUUCACUGAAAUUUAUCAAGUGAGUGUAGAAGAAUGACUCUCGAUGAAAUUUUUCUAUGUCCAAUAUGGUGGGCCCCUCAAGGCUACUUCUCAAGGUUUUCUUGGAACCCAACAGAGGAUUGAGCAUCA
B8: chr3:179287964:179287965:+_ENSG00000136518_ENST00000429709|hu_hu|hu_hu_hu_mus_True|68_88 (ssRNA)
RNA: GGGAGUUCUACAGUCCGACGAUCCUUGAGUGGUGAGAUGGCCUCCAUAUUCUCCCUGGGCACGCGGAGAGCAUUAGUGUCUAUGUAGUAGGUGGGCCCGCCCUGCUUGCCUUUGUCACCAUCAAUCUCCAUCAUUGUACUUCCCAACAGAGGAUUGAGCAUCA
B9: chr6:41757443:41757444:+_ENSG00000214736_ENST00000398881|hu_mus|hu_hu_hu_mus_False|1_78 (ssRNA)
RNA: GGGAGUUCUACAGUCCGACGAUCGAACCGUGCAGAGGCAACAUCUCAGCCGACACUGUGGACUCAAGGGGCAGUGGGGGGGGGUUCAGGCAAGGAGAGGGAGUCAACUUCAGCUGCCACUCAGGUAGGAUCUUGUGGGGCACACAACAGAGGAUUGAGCAUCA
B10: chr1:225611761:225611762:-_ENSG00000143815_ENST00000272163|hu_mus|hu_hu_hu_mus_True|8_48 (ssRNA)
RNA: GGGAGUUCUACAGUCCGACGAUCCCAGGCCAUCGGCCUCUGACCACUUCACCCUCAACAAACUUCCUACUUGGCAUUUUCUAAAAUUAACCUGCGCGCGCUCCGGCGGGAACUCCAGCCACUCCAGGGAGAAUAGUAGCAGCCCAACAGAGGAUUGAGCAUCA
B11: chr16:94664741:94664742:+_ENSMUSG00000040785_ENSMUST00000117648|mus_hu|mus_mus_mus_hu_False|68_78 (ssRNA)
RNA: GGGAGUUCUACAGUCCGACGAUCUGGUACUGAUCUUGGUAGCUGAUAUUCAGGAGAAAUGUUGGCCAAAGGUGUGUAUAUGCUGGUGUACUGGGGCAAACCUGGUAACACGUUUAUGUAUGCUGGCGGUGUCUGGGUGAUAUCCAACAGAGGAUUGAGCAUCA
B12: chr4:146681603:146681604:-_ENSG00000151612_ENST00000508784|hu_hu|motif|central (ssRNA)
RNA: GGGAGUUCUACAGUCCGACGAUCAUUCACCCAACAGAAAACCAAAUGCACCAGUAUAUAAGCUUACAAGUGCUGAUUGCGGUUAAGGACACUCUCUUUAGGGUUUAACAAGACAAGAUUCCUUUCAGAGAAAAGUACGGAGAACAACAGAGGAUUGAGCAUCA
B13: 165880641_165880761_2131_CDS_ENSMUSG00000027678_ENSMUST00000088095|mouse|control|control (ssRNA)
RNA: GGGAGUUCUACAGUCCGACGAUCCCCUGAUGUUGAGGAGGACACUCCAGAGGGGCUGGUGACACUAACGGAAGAGUCUUUGCAGUUUGGAUCCAGGGGAGAGUUGGUCAAGGAGGAAUGGCCUCGGUCGUCGGAGGAGCACGUCAACAGAGGAUUGAGCAUCA
B14: chr4:17845017:17845018:+_ENSG00000109805_ENST00000514176|hu_mus|hu_hu_hu_mus_False|18_68 (ssRNA)
RNA: GGGAGUUCUACAGUCCGACGAUCGCUCUCUUAACUUGUAUCUUCAUUAAGGAACUCUGCAAGGUUAGUUUACUUUUUCUGUAGCGCAGCUGUUUUGGCUCGUCUGGGUAAUCUCAUUUCAUUUCUGGAUGGUGGUUCAUGAUCCAACAGAGGAUUGAGCAUCA
B15: chr2:48026839:48026840:+_ENSG00000116062_ENST00000540021|hu_hu|hu_hu_hu_mus_False|78_88 (ssRNA)
RNA: GGGAGUUCUACAGUCCGACGAUCAUAGUGAGCCACUAGCGUCCUAAAUCUCGAACAAUGGCGAUCAUCCGAAAACUGGCCGAUGAAAAACUUGCCCAGUGAAGUGUCCACAAAGCAAACACCAUACACACGAGUGUGACCAGACAACAGAGGAUUGAGCAUCA
B16: chr18:61067831:61067832:-_ENSG00000119541_ENST00000238497|hu_mus|FALSE|FALSE (ssRNA)
RNA: GGGAGUUCUACAGUCCGACGAUCAGACACAAGGUCAGAGGAAGAUAUUGAGAAAAAUGUUGAGUUGUUUGCUUCCGUUGCAACAGCUUUAGCCAAAUAAGAUUUUCCUGUUCCUGGUGGUCCAAAUAAUAGGAUUCCUCUCCACAACAGAGGAUUGAGCAUCA
B17: 135087853_135087973_1139_CDS_ENSMUSG00000051177_ENSMUST00000110116|mouse|control|control (ssRNA)
RNA: GGGAGUUCUACAGUCCGACGAUCAAUCAACACUUGGACCUGCUCCUGCUUCAGAGGUGGGUAAAGGAUUUCAUUGAGCCGGGGAUCUCUCUGCUUAAGGUUGAUAAAAUCCAUCAUCUGAUCAACCGUCAGGUACGGUUUGCUCAACAGAGGAUUGAGCAUCA
B18: chr6:64286377:64286378:+_ENSG00000112245_ENST00000370650|hu_mus|FALSE|FALSE (ssRNA)
RNA: GGGAGUUCUACAGUCCGACGAUCACUUGUCUGCAUAGAGGUCGUGCUGUGCCUGGCAGUAAUCUCCACUGCCCUUCAGAAACUCCAUAAAUGUGUGACCGAGAACACCACAGAACUGAGGAAUAUGUCUACUCAUUGAAGAUUCAACAGAGGAUUGAGCAUCA
B19: chr18:35731649:35731650:+_ENSMUSG00000037236_ENSMUST00000166793|perfect_dup|FALSE|FALSE (ssRNA)
RNA: GGGAGUUCUACAGUCCGACGAUCCCCUACCGAGAGAUGACUGCUGGAAUGACUUGGACAUUGUAGAACUAUCUCUUGUCUAUUUUAUAGAUCAAAAAAAAAAAAAAAAGUUUUAAAAGAUGGCCAAAAAGAAAGCUCAAGCUACAACAGAGGAUUGAGCAUCA
B20: chr18:54424204:54424205:+_ENSG00000091157_ENST00000357574|hu_mus|motif|central (ssRNA)
RNA: GGGAGUUCUACAGUCCGACGAUCCCAGGCGUGGAGACAGGACAUGAAUAAUUUUGCGGUAUCCAUAGUAAGGUUGUAUUCGGGUAGGGUCAGUGGCUUGGACUUGCUGGCCCGGUACUCAGGGUCACUAUCCUCCCUGCUCUGCAACAGAGGAUUGAGCAUCA
B21: chr7:140404665:140404666:+_ENSG00000090266_ENST00000247866|hu_hu|hu_hu_hu_mus_False|78_98 (ssRNA)
RNA: GGGAGUUCUACAGUCCGACGAUCUGCUCCUACUCGUAGGCUGAGUCUACAGUGUCAGUCUUCAUCAUCAGGAGGGAUUCCCAGUUCUUCAUCUGUCCACUGUGAAGGAUCUGGAUAUGAAAAGUGACCCAGCACAGCAUCCGACAACAGAGGAUUGAGCAUCA
B22: 108412298_108427553_2264_CDS_ENSG00000108018_ENST00000263054|human|control|control (ssRNA)
RNA: GGGAGUUCUACAGUCCGACGAUCCACCUUCCUGUACCCAGUACUAUUGAGGUAACUCUGUCCCAAGCUGCAAUCCUUUGACAGAGAGGAUGGAUUGAACCAAAAUGCCGGCAGGCACUGGCCAUUGCUGUGUCGCUCAUAACCCAACAGAGGAUUGAGCAUCA

Target: T1, UNK ZnF1-3
Assay: nsRBNS (natural sequence RNA bind-n-seq); RBNS binding buffer (assumed for nsRBNS): 25 mM Tris pH 7.5, 150 mM KCl, 3 mM MgCl2, 0.01% Triton X-100, 500 ug/ml BSA, 20 U/ml SUPERase-In, 4 C; UNK is unkempt and MSI1 is Musashi-1; names of the RNAs are library labels; protein concentration not given here; high values mean tight binding

Binder | binding signal [enrichment R]
B1 | 0.684
B2 | 2.03
B3 | 0.874
B4 | 1.36
B5 | 0.626
B6 | 0.891
B7 | 0.635
B8 | 0.871
B9 | 2.94
B10 | 1.61
B11 | 0.958
B12 | 1.54
B13 | 1.76
B14 | 0.435
B15 | 1.21
B16 | 1.29
B17 | 1.3
B18 | 1.27
B19 | 3.14
B20 | 1.03
B21 | 0.815
B22 | 1.21
